Measured values taken from PubChem BioAssay AID1347073 (National Center for Advancing Translational Sciences (NCATS), 2019).
Hit rate of the full screen: of about 45,000 compounds, about 200 (0.44%) were called active. Roughly 7% stayed inconclusive and do not appear here. Calls come from the whole dose curve; as a rule, active = well fitted activation curve with a large enough effect; inconclusive = small, poorly fitted or top-dose-only effect; inactive = no such curve, though single readings can be large or run the other way. Some of the results follow.

Assay: qHTS of TDP-43 Inhibitors: NCGC Sytravon Library Screen; note: 0% is about no effect; nearly all actives have a fitted effect of over 55% in size
Settings: yeast TDP-43 toxicity rescue, BacTiter-Glo growth, 24 h; series mostly up to 46.1 µM; growth rescue (activation): at the top concentration
Procedure, shortened: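 TDP-43-expressing yeast, pregrown in raffinose, seeded at OD600 0.02 in galactose medium with compound for 24 hr at 30 deg C. Growth read by BacTiter-Glo luminescence, so rescue of toxicity appears as activation.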

| SMILES | growth rescue (activation) |
| --- | --- |
| Cc1ccc2nc(SC(C)C(=O)NC3CCCc4ccccc43)[nH]c2c1 (stereo unspecified) | inactive: 32.3% |
| Cn1cccc1C(=O)OCC(=O)N1CCN(c2ccccc2)CC1 | inactive: 9.25% |
| CCC(=O)Nc1cccc2cccnc12 | inactive: -12.7% |
| COc1ccc2nc(C)cc(SCC(=O)OC(C)C)c2c1 | inactive: -13.6% |
| CCc1ccc2c(CN3CCC(C(=O)OC)CC3)cc(=O)oc2c1 | inactive: 3.85% |
| CCc1nnc(NC(=O)C2CCN(S(=O)(=O)Cc3ccccc3)CC2)s1 | inactive: 29.7% |
| Cc1cc(C)nc(NN=CC2=C(N3CCOCC3)/C(=C/c3ccc(Cl)cc3)CC2)n1 | inactive: 1.11% |
| COc1ccccc1-c1nc(S(=O)(=O)c2ccccc2)c(N2CCCCC2)o1 | inactive: -5.57% |
| O=C(NC1CCN(C(=O)Nc2ccc(F)cc2)CC1)c1ccccc1F | inactive: 7.64% |
| O=C(CSc1nc2ccc(Cl)cc2[nH]1)NCc1ccco1 | inactive: -11.6% |
| COc1ccc(Nc2nnc(SCC(=O)Nc3ccc4[nH]c(=O)[nH]c4c3)s2)cc1 | inactive: -4.94% |
| S=C(Nc1ccccc1)N1CCN(C/C=C/c2ccccc2)CC1 | inactive: 1.1% |
| CC(=O)Nc1ccc(/C=N/NC(=O)c2cccc(S(=O)(=O)N3CCOCC3)c2)cc1 | inactive: -19% |
| Cc1ccc(NC2Sc3ccccc3NC2=O)cc1 (stereo unspecified) | inactive: 15.8% |
| CC1(C(=O)NS(=O)(=O)c2cccs2)CCN1C(=O)CC1CCCCC1 (stereo unspecified) | inactive: -17.5% |
| O=C(c1ccncc1)N(c1ccc2oc3c(c2c1)CCCC3)S(=O)(=O)c1cccc([N+](=O)[O-])c1 | inactive: 32.5% |
| CC1CCCCC12NC(=O)N(CC(=O)NNC(=O)c1ccc(Br)cc1)C2=O (stereo unspecified) | inactive: -5.89% |
| NC(c1csc(NC(=O)Nc2ccc(OC(F)(F)F)cc2)n1)C1CCCCC1 (stereo unspecified) | inactive: 9.39% |
| CC(=O)c1sc(NC(=O)c2cc(-c3ccccc3)nn2-c2ccccc2)nc1C | inactive: 9.35% |
| Cn1cnc([N+](=O)[O-])c1Oc1ccccc1 | inactive: 3.45% |
| COc1ccc(/C=N/NC(=O)c2[nH]c3ccc(C)cc3c2-c2ccccc2)c(C(=O)O)c1OC | inactive: 4.87% |
| CC(=O)Nc1ccc(S(=O)(=O)NCCC(=O)NC2CCCCCC2)cc1 | inactive: 6.54% |

| SMILES | growth rescue (activation) |
| --- | --- |
| C/C(=N/NC(=O)CSc1nc2ccccc2n1C)c1ccc(O)cc1 | inactive: -2.68% |
| COc1ccc(-c2ccc(SCC(=O)NC3CCCCC3)nn2)cc1 | inactive: -0.708% |
| Oc1ccccc1CN1CCC(C(O)(c2ccccc2)c2ccccc2)CC1 | inactive: 5.71% |
| Cc1cc(C)c(C#N)c(Oc2ccc(F)cc2)n1 | inactive: 14.8% |
| COc1ccccc1C(=O)Nc1ccc(S(=O)(=O)Nc2cnc3ccccc3n2)cc1 | inactive: -6.48% |
| Cc1cccc(C)c1NC(=O)CN1CCN(C(=O)c2ccc(OCc3cn4ccccc4n3)cc2)CC1 | inactive: 11.9% |
| COc1cc([N+](=O)[O-])ccc1NC(=S)NC(=O)CC(C)(C)C | inactive: -0.761% |
| CCOC(=O)C1(Cc2ccccc2)CCCN(C2CCCC2)C1 (stereo unspecified) | inactive: -4.12% |
| CCOC(=O)Cn1c(C)c(Br)c(COC)c(C#N)c1=O | inactive: 10.8% |
| O=C1C2CC=CCC2C(=O)N1c1ccc(NCCc2cccc(F)c2)c([N+](=O)[O-])c1 (stereo unspecified) | inactive: -7.74% |
| O=C(Nc1ccccc1C(=O)O)c1ccc2c(c1)C(=O)N(c1cccc([N+](=O)[O-])c1)C2=O | inactive: 1.94% |
| COc1cc(OC)cc(N(C(=O)c2ccco2)C(C(=O)NC2CCCC2)c2ccc(N(C)C)cc2)c1 (stereo unspecified) | inactive: 9.86% |
| C=CCSC1=NN2CCS(=O)(=O)N=C2S1 | inactive: -11.1% |
| Cc1cc(C)c(NC(=S)NCC2CCN(C(C)c3ccccc3)C2)c(C)c1 (stereo unspecified) | inactive: 1.47% |
| COc1ccc(S(=O)(=O)NCCC(=O)OCc2cc(=O)oc3cc(C)ccc23)cc1[N+](=O)[O-] | inactive: -22.3% |
| OC(COc1ccccc1)CN1CCN(Cc2ccc3c(c2)OCO3)CC1 (stereo unspecified) | inactive: 10.4% |
| O=S(=O)(c1ccccc1)c1nc(Cc2ccccc2)oc1N1CCOCC1 | inactive: -11% |
| Cc1cccc(C)c1NC(=O)c1sc(N)nc1-c1ccccc1 | inactive: 3.61% |
| CCOC(=O)CN1C(=O)/C(=C/c2c(F)cccc2Cl)Oc2ccccc21 | inactive: -9.65% |
| COc1ccc(CCNC(=O)c2ccc(S(=O)(=O)N(C)c3ccccc3)cc2)cc1OC | inactive: 15% |
| CN(CC(=O)NCc1cccnc1)S(=O)(=O)c1ccc(F)cc1 | inactive: -6.52% |
| CCN(CC)S(=O)(=O)c1ccc(Cl)c(NC(=O)CCCCl)c1 | inactive: 5.98% |

| SMILES | growth rescue (activation) |
| --- | --- |
| CCC(=O)NC(=S)Nc1ccccc1C(=O)OC | inactive: 26.6% |
| CC(NC(=O)CCNS(=O)(=O)c1cccc2nsnc12)c1ccccc1 (stereo unspecified) | inactive: 5.13% |
| COc1cc(Cl)c(C)cc1NC(=O)c1ccccc1-n1cnnn1 | inactive: 11.1% |
| O=C(CN1C(=O)NC2(CCCCCCC2)C1=O)NC1CCCc2ccccc21 (stereo unspecified) | inactive: -10.2% |
| N#C/C(C(=O)Oc1ccccc1)=C1/Nc2ccccc2-c2ccccc21 | inactive: 28.9% |
| O=C(N/N=C/c1ccco1)c1ccccc1OCc1ccc(Br)cc1 | inactive: 20.4% |
| Cc1c(C(=S)Nc2ccccc2)cnn1-c1ccc([N+](=O)[O-])cc1 | inactive: 24.8% |
| CC(=O)Nc1ccc(S(=O)(=O)Nc2nc3cc4c(cc3nc2Cl)OCCO4)cc1 | inactive: 24.3% |
| CCNS(=O)(=O)c1ccc(OC)c(C(=O)NC2CCCCC2)c1 | inactive: -0.198% |
| COc1cc(/C=N/NC(=O)CCN2CCN(C)CC2)cc2c1OCO2 | inactive: -29% |
| O=C(CSc1nc2cc(Cl)ccc2s1)Nc1cccc(S(=O)(=O)N2CCOCC2)c1 | inactive: 14.8% |
| COc1ccc(C(O)(CCN2CCOCC2)c2ccccc2)cc1 (stereo unspecified) | inactive: 3.99% |
| Cc1noc(C)c1CS(=O)(=O)Cc1ccc(Cl)cc1 | inactive: 10% |
| CCOc1cc(CNCCc2ccccc2)ccc1OCC(=O)NC(C)(C)C | inactive: 6.41% |
| CCc1nc2ccc(C(=O)Nc3cc(-c4ccccc4)ccc3OC)cn2c1N(C)CCC(C)C | inactive: -35.4% |
| COc1ccc(OC)c(/C=C2\SC(=S)N(N3CCOCC3)C2=O)c1 | inactive: -12.3% |
| CC(C)(C)N(Cc1ccccc1)C(=O)CN1C(=O)c2ccccc2S1(=O)=O | inactive: 18.8% |
| CC(C)CC(NC(N)=O)C(=O)NCc1ccccc1Cl (stereo unspecified) | inactive: 7.89% |
| Cc1ccc(S(=O)(=O)NN2C(=O)c3ccccc3NC2(C)C)cc1 | inactive: -3.11% |
| CNc1c(NS(=O)(=O)c2ccc(OC)cc2)c(=O)oc2ccccc12 | inactive: -5.83% |
| Cc1cc(C)cc(NC(=O)/C(C#N)=C/c2cn(CC(=O)NCc3ccco3)c3ccccc23)c1 | inactive: -1.99% |
| COc1ccc(S(=O)(=O)N(C)C)cc1NC(=O)CCCSc1ccccc1 | inactive: -11.3% |

| SMILES | growth rescue (activation) |
| --- | --- |
| CCC1CCCCN1S(=O)(=O)c1ccc(NC(=O)c2cccnc2)cc1 (stereo unspecified) | inactive: -1.1% |
| CC(=O)[C@@]1(O)CCC2C3CC[C@H]4C[C@@H](O)CC[C@]4(C)C3CC[C@@]21C (stereo partly specified) | inactive: 10.5% |
| COc1ccc(OC)c(NC(=O)c2ccc3c(c2)C(=O)N(CC2CCCO2)C3=O)c1 (stereo unspecified) | inactive: -2.55% |
| COC(=O)c1ccccc1N(C)S(=O)(=O)c1cc2c(cc1C)OCC(=O)N2 | inactive: 8.44% |
| COc1cc(C#N)ccc1OC(=O)Cc1cc(OC)c(OC)c(OC)c1 | inactive: 12.4% |
| COc1ccc(C(CC(=O)c2ccccc2)S(=O)(=O)c2ccccc2)cc1 (stereo unspecified) | inactive: -7.27% |
| Cc1cc(C)cc(OCc2nnc(SCC(=O)NC3CC3)n2C)c1 | inactive: 4.01% |
| CCOc1ccccc1N=Nc1c(C)[nH]n(C(N)=S)c1=O | inactive: 15.6% |
| CNC(=S)Nc1ccc(Br)cc1 | inactive: 28.8% |
| Cc1ccc(S(=O)(=O)N2CCN(C(=O)C(C)Cn3cncn3)CC2)cc1C (stereo unspecified) | inactive: 6.95% |
| CC1=C(C(=O)N2CCOCC2)C(c2cc(C)ccc2C)NC(=S)N1 (stereo unspecified) | inactive: 9.5% |
| Cc1ccc(S(=O)(=O)Nc2ccccc2C(=O)NCc2cccnc2)cc1 | inactive: 0.906% |
| O=C(Nc1cccnc1)c1ccc(Cl)c(S(=O)(=O)N2CCOCC2)c1 | inactive: 8.52% |
| CCCc1n(CC(O)COCc2ccccc2)c2ccccc2[n+]1C (stereo unspecified) | inactive: 7.33% |
| Cc1c(NC(=O)/C(C#N)=C/c2c(Oc3ccccc3)nc3ccccn3c2=O)c(=O)n(-c2ccccc2)n1C | inactive: 8.35% |
| O=[N+]([O-])c1ccc(N2CCOCC2)cc1SCc1ccco1 | inactive: 11.8% |
| Cc1ccc(CNC(=O)CN(C(=O)C2(C)CC(=O)N=C3C=CC=CN32)c2cccc(C)c2C)cc1 (stereo unspecified) | inactive: 5.25% |
| COCOc1cccc(CN2CCC2(C)C(=O)Nc2cc(OC)ccc2OC)c1 (stereo unspecified) | inactive: 4.81% |
| COc1cc(/C=N/NC(=O)c2nonc2N)cc(OC)c1OC | inactive: 5.77% |
| COc1ccc(Cc2nnnn2CC(=O)O)cc1 | inactive: 6.13% |
| O=[N+]([O-])c1cc(C(F)(F)F)cc([N+](=O)[O-])c1NN=C1CCCCC1 | inactive: 19% |
| Cc1cc(N2CCCC2)ccc1/C=C1/C(=O)N(C)C(=S)N1C | inactive: 5.71% |

| SMILES | growth rescue (activation) |
| --- | --- |
| O=S1(=O)CCC(NC(=S)SCc2ccccc2Br)C1 (stereo unspecified) | inactive: 22.4% |
| O=C(CNC(=O)c1ccccc1Cl)c1ccccc1 | inactive: 10.2% |
| CCOC(=O)N1CCC(NC(=O)c2ccc3c(c2)N(Cc2ccc(F)cc2)C(=O)c2ccccc2S3(=O)=O)CC1 | inactive: 0.625% |
| Cc1cc(C(=O)NNC(=O)c2ccc(F)cc2)c(C)s1 | inactive: 20.3% |
| COC(=O)Cc1[nH]n(-c2nc3ccccc3s2)c(=O)c1C(C)=O | inactive: -1.01% |
| CC(=O)c1ccc(NC(=O)CCNS(=O)(=O)c2ccccc2F)cc1 | inactive: 3.88% |
| O=C(COc1cccc2ccccc12)N/N=C/c1ccncc1 | inactive: 9.71% |
| CCN(CC)c1ccc(N2C(=O)C3CCCCC3C2=O)cc1[N+](=O)[O-] (stereo unspecified) | inactive: 19.5% |
| CCOc1ccc(OCC)c(S(=O)(=O)NCCOC23CC4CC(CC(C4)C2)C3)c1 | inactive: 2.74% |
| COc1ccc(/C=N/Nc2cc(C)nc(NS(=O)(=O)c3ccc(C)cc3)n2)cc1 | inactive: 3.34% |
| COc1cccc(CNC(=O)C2CCN(c3nnc(-n4c(C)ccc4C)s3)CC2)c1 | inactive: 6.5% |
| CCC(C)N(C(=O)CSc1nc(-c2ccccc2)cs1)C1CCS(=O)(=O)C1 (stereo unspecified) | inactive: -12.3% |
| Cc1cc(/C=N\O)c(C)n1-c1ccncc1 | inactive: 6.49% |
| CCCn1c(SCC(=O)N2CCOCC2)nnc1-c1ccncc1 | inactive: -1.53% |
| CNc1cncc(-c2cccc(NS(C)(=O)=O)c2)n1 | inactive: 1.07% |
| CCCc1cc(=O)oc2cc(OCC(=O)N3CCOCC3)c(Cl)cc12 | inactive: 6.89% |
| Clc1ccc(N=C2SCC3CCCCN23)cc1 (stereo unspecified) | inactive: -3.92% |
| Cn1c(-c2ccc(F)cc2)cnc1SCC(=O)N1CCCc2ccccc21 | inactive: 18.4% |
